# From article PMC12136788
# This is one part of the list.
# B1: chr4:83459516:83462902:-|three_prime_utr|ENSG00000163322|control|control|control (ssRNA)
# RNA: GGGAGUUCUACAGUCCGACGAUCUUACGGACCUUUUUUCCAAAUUCUGAAUUUCUUCAUUCAUGUGUUAUGUCUUUAAAAAAUAGACAUGUUUCUAAAAGUAGCUGUAACUACAACCACCAUCUCGAUGUAGUAGACAAUCUGCAACAGAGGAUUGAGCAUCA
# B2: chr1:220062840:220062943:-|CDS|ENSG00000162813|unk|FALSE|unique (ssRNA)
# RNA: GGGAGUUCUACAGUCCGACGAUCGUUUACACAGGCAGGACCAGAUGCUGUGUUGGGGAGGACAAUCUGGGGAGUUUUAGGUUUAGGCGCCUUUGGGUUUCAGCUGAAAGAAGUCCCUGCUGGGAAACACAUUAUCACAACUACCAACAGAGGAUUGAGCAUCA
# B3: chr20:5938399:5938502:-|3pUTR|ENSG00000089195|unk|FALSE|unique (ssRNA)
# RNA: GGGAGUUCUACAGUCCGACGAUCGUCUGACUCUUAACCCUUUUGAGAAUUGCUCUGAAUUUUGUUCUCAGGCAUUAUACAGUUAGUAAUUAAACUUUAAAUGCCAUUACUACUUGUUUUUUCAUAUCCCAAGAAUAAGAACAUCAACAGAGGAUUGAGCAUCA
# B4: chrX:101413019:101413185:+|CDS|ENSG00000126945|unk|FALSE|unique (ssRNA)
# RNA: GGGAGUUCUACAGUCCGACGAUCGGAGCUCUUCUUAAAUUCUACUGCAGGAACAAGUGGGGGUGCUUACGAUCACAGCUAUGUAGAACUUUUUUUGAAUUCUACAGCAGGGGCAAGUGGUGGCGCUUAUGGUAGCCAAAUGAUCAACAGAGGAUUGAGCAUCA
# B5: chr7:92612324:92612425:-|3pUTR|ENSG00000105810|msi1|total|mutant (ssRNA)
# RNA: GGGAGUUCUACAGUCCGACGAUCAUCCAACACAAGCAGUCUUGCCGUCCGGGCAUUUUGAAGCAGACCGCCGAGUAAGAACUCCGUGACUACAGCUUAUUCUUCUGUAACAUAUGGUUUCAAACAUCUUUGCCAAAAGCUAAGCAACAGAGGAUUGAGCAUCA
# B6: chr8:27776916:27777017:+|CDS|ENSG00000171320|unk|FALSE|unique (ssRNA)
# RNA: GGGAGUUCUACAGUCCGACGAUCAAACCACAAGUUACACUCCAGGGUGGAGCAGCAUUUUUUGUUAGAAAAAAAUCUUCUCUUAGAAAAUCGUCCCUGGAAAAUGAGCCGUCACUGGGACGCACCCAAAAGAGUAAAUCAGAACAACAGAGGAUUGAGCAUCA
# B7: ENSG00000198589:be:win_151|CDS|ENSG00000198589|bound_else_gene|NA|bound_elsewhere_windowed (ssRNA)
# RNA: GGGAGUUCUACAGUCCGACGAUCUUGACCGGUUUGGUUGAAGUUGGAGAAGUAUCCAAUAGGGAUAUUGUAGAAACUGUCUUUAACCUGUUGGUAGGAGGACAGUUUGAUCUGGAAAUGAAUUUCAUUAUCCAAGAAGGUGAGCAACAGAGGAUUGAGCAUCA
# B8: chr2:216122066:216122255:+|CDS|ENSG00000079246|unk|total|mutant (ssRNA)
# RNA: GGGAGUUCUACAGUCCGACGAUCCCAUGGGCCUUCCUUUCCACUAAAAGGAAUUACCGAACAGCAAAAAGAAGGUCUUGAGACCGUGAAAAUGGUGAUGAUAUCUUCCGAAGGUGAAGAUGGGUUGGAUGAAAUUUAUUCAUUCAACAGAGGAUUGAGCAUCA
# B9: chr6:113953301:113953428:-|CDS|ENSG00000196591|unk|FALSE|unique (ssRNA)
# RNA: GGGAGUUCUACAGUCCGACGAUCAAAAACCAAAACUUAUGGAUUUGUUUUCAGGUAUCAUCAGAGAGUCUUAUAUAUUGAUAUAGAUAUUCAUCAUGGUGAUGGUGUUGAAGAAGCUUUUUAUACAACAGAUCGUGUAAUGACCAACAGAGGAUUGAGCAUCA
# B10: chr21:25881503:25881610:-|3pUTR|ENSG00000142192|msi1_unk|total|mutant (ssRNA)
# RNA: GGGAGUUCUACAGUCCGACGAUCACAAACCCGUUUUAUGAUUUACUCAUUAUCGCCUUUUGACAGCUGUGCUGUAACACAAGCCGAUGCCUGAACUUGAAUUAAUCCACACAUCAGUAAUGUAUUCUAUCUCUCUUUACAUUUCAACAGAGGAUUGAGCAUCA
# B11: chr13:113097702:113097803:+|3pUTR|ENSG00000126217|unk|FALSE|unique (ssRNA)
# RNA: GGGAGUUCUACAGUCCGACGAUCAAAGAAAAUACAAAGAUGCAGUUUCUGCAGGGUGUGGCGUGGACCAGUGCUGCCGACCAUAGCUCAGAGAGCCCUGCCCCUGCCUCACUGCACUGCAGCCUCCUCGGAGGCCGCACCUCCCAACAGAGGAUUGAGCAUCA
# B12: chr1:6525536:6525637:-|3pUTR|ENSG00000162408|msi1|FALSE|unique (ssRNA)
# RNA: GGGAGUUCUACAGUCCGACGAUCACAGUUUGUGUGCCAUUAAAACAGAGAUUCCUCAGAAAGUUCUUCAGGGACCUGGUUAUUAGAAUCAGGAUAAAAAUAAGGAAACUGGGGCCAUUACAAUGUACCGAGAAGGAAGGAAGACAACAGAGGAUUGAGCAUCA
# B13: ENSG00000153989:stop:overlap|stop_codon|ENSG00000153989|stop_codon|NA|stop_codon (ssRNA)
# RNA: GGGAGUUCUACAGUCCGACGAUCAUGAGGACUUUUUCUCUGCCCUUCGUCAAUAUGCAGCCUGUGAACAGCGUCUGGGAAAGUAGUGGUCAUUGGUUGCAUAAUUUGAUUUGAGGCUUGUGGAGGAAAGGAACCAAGUGACUCCAACAGAGGAUUGAGCAUCA
# B14: chr1:157676480:157678709:-|three_prime_utr|ENSG00000160856|control|control|control (ssRNA)
# RNA: GGGAGUUCUACAGUCCGACGAUCAAGCACUGUGUUAUUUUCACAGUGGAGACACGUGGCAAGGCAGGAGGGCCCUCAGCUCCUAGGGCUGUCGAAUAGAGGAGGAGAGAGAAAUGGUCUAGCCAGGGUUACAAGGGCACAAUCCAACAGAGGAUUGAGCAUCA
# B15: chr7:2728618:2728646:-|3pUTR|ENSG00000146535|msi1_unk|total|mutant (ssRNA)
# RNA: GGGAGUUCUACAGUCCGACGAUCUUUAAUUUCACUGUUAAUCCUUAUUGUCUUUUUUAUUAAGAUGUUGGAAAAGCAGGAGGCCGUUGUGCCUCAAUUAUUGCAAAAAUGUAACAAUAAAGUUCCUCAAAAUAAGAUCUGUUCCAACAGAGGAUUGAGCAUCA
# B16: chrX:48578139:48578249:+|3pUTR|ENSG00000102317|msi1_unk|FALSE|overlapping (ssRNA)
# RNA: GGGAGUUCUACAGUCCGACGAUCGUAUCAAGAACAUGAUUAUCCAGCGGUAUUUUCUAAUUCAGAUCAUCAAACUGAUUAUAUAGAAGAGUUGGCUUUAAAAUGUUUGCAAAUGUCUUUUUUUUUUUAAUACUGGAAGAAAAACAACAGAGGAUUGAGCAUCA
# B17: chr4:2944067:2944171:-|CDS|ENSG00000087269|unk|FALSE|unique (ssRNA)
# RNA: GGGAGUUCUACAGUCCGACGAUCGGCUUUGUCCCAGAGGUUUAUACCUGAGCUUAUUAAUUUUCUUCUUGGGAUUCUUUACAUAGCAACUCCAAACAAAGCAAGCCAAGGUGAGUUGAUUUGAGGGAGGUUCCUACAAAUAUGCAACAGAGGAUUGAGCAUCA
# B18: chr22:38864602:38864703:-|3pUTR|ENSG00000183741|msi1|FALSE|bound_elsewhere (ssRNA)
# RNA: GGGAGUUCUACAGUCCGACGAUCGCUGUGCUGCCAUGGGCCCCUCCCUCAGAAGCACGUUGGCAGGAGGCCGAUCAGAACCCUAGCGCCUUUGGUCCUAAGAAUGGGAGGCUGCCUUCCUUCCCAAUCUCCCUGCCAGGGCCCCAACAGAGGAUUGAGCAUCA
# B19: chr1:13049810:13050369:-|CDS|ENSG00000274764|control|control|control (ssRNA)
# RNA: GGGAGUUCUACAGUCCGACGAUCGCCCCGCGGGAGAGUUAUGGUGCUGAUGGUACUCUCUGCUGGAACAGAUUUGCUCAAAUUAGGGCUGAGCUGAUGAACAGAGUGAGGGACUUAAGGCACCCCAAGAGGAUCUUUUUCUGUCAACAGAGGAUUGAGCAUCA
# B20: chr12:111449306:111449407:+|3pUTR|ENSG00000111252|msi1|FALSE|unique (ssRNA)
# RNA: GGGAGUUCUACAGUCCGACGAUCGCUGGCUUGGUGCCCUCCAAGCAUCUAAUGGCUUAUUAAAUUAUCCCACAAGUGGGUUUUAGGCUCCUUUUUUGAGCCAAAAUGGAAGCUGGGAAUCUGGUGCCAUAACUAAUGAGAAACCAACAGAGGAUUGAGCAUCA
# B21: ENSG00000136451:be:win_4051|3pUTR|ENSG00000136451|bound_else_gene|NA|bound_elsewhere_windowed (ssRNA)
# RNA: GGGAGUUCUACAGUCCGACGAUCGGUGGGCCACUGAAAAGGGGUACCGAAUAGGUUGUGUGAUGAAAUUCUGUGUCUUGGAACUGGAAUUGAGUUUCGAUGUUGAUGAACUGAUUCAACCAGGUGUUGAAGGCACGACAGCCACAACAGAGGAUUGAGCAUCA
# B22: chr5:133955728:133955829:-|3pUTR|ENSG00000113583|msi1|FALSE|unique (ssRNA)
# RNA: GGGAGUUCUACAGUCCGACGAUCUCAAUAUGUAAAUAUGUGAUUUGAACCAUGGUUGACUUACAAGUGUCACUACAGCUUUUUAGAAAACAUAGCCCUAAUAUAUGUUAAGCAGGACCCGGGUGAGCCAGUGGGCUUGCGCUUCAACAGAGGAUUGAGCAUCA
# Biological target: T1, UNK ZnF1-6 (called full-length) (human, UniProt Q9C0B0 30-357)
# T1 sequence: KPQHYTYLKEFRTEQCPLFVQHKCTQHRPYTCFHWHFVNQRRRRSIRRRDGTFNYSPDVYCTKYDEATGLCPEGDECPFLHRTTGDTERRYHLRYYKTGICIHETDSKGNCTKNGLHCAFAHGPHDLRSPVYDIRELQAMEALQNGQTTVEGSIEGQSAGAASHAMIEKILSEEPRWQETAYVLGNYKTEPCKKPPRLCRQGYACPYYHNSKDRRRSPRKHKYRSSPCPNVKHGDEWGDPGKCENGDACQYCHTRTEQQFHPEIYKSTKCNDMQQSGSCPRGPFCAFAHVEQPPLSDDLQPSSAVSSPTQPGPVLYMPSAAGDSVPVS
# Assay: nsRBNS (natural sequence RNA bind-n-seq); RBNS binding buffer (assumed for nsRBNS): 25 mM Tris pH 7.5, 150 mM KCl, 3 mM MgCl2, 0.01% Triton X-100, 500 ug/ml BSA, 20 U/ml SUPERase-In, 4 C; UNK is unkempt and MSI1 is Musashi-1; names of the RNAs are library labels; protein concentration not given here; high values mean tight binding
row,Binder,binding signal [enrichment R]
1,B1,0.723
2,B2,1.36
3,B3,0.795
4,B4,1.17
5,B5,0.871
6,B6,0.522
7,B7,0.347
8,B8,0.46
9,B9,0.702
10,B10,0.402
11,B11,0.662
12,B12,0.685
13,B13,0.746
14,B14,1.07
15,B15,0.612
16,B16,0.718
17,B17,0.644
18,B18,0.904
19,B19,1.01
20,B20,0.676
21,B21,0.486
22,B22,1.2
